No constants are given. Whether binding was seen depends on the method and setting. Binding seen in cells or lysates may run through a third protein. Some entries that bind do so weakly or less than the wild type. One block for each binder: values may come before it.
What was measured:
[1] = biological target: Strep-PKN3 (StrepII- and Flag-fused mouse PKN3) (mouse) (UniProt Q8K045); experiment: co-IP; SrcF-transformed p130Cas-/- MEFs re-expressing p130Cas, transfected with Strep-PKN3; precipitation with Strep-Tactin Superflow resin; blots with anti-p130Cas, anti-Src, anti-Actin
[2] = biological target: Flag and GFP-fused PKN3 KD (mouse) (mouse) (UniProt Q8K045); experiment: co-IP; MDA-MB-231 cells transiently transfected with mouse Flag and GFP-fused PKN3 variants; immunoprecipitation with anti-Flag sepharose; blot with anti-p130Cas; 1% Triton lysis buffer
[3] = biological target: Flag and GFP-fused PKN3 mPR (mouse) (mouse) (UniProt Q8K045); experiment: as above
[4] = biological target: Flag and GFP-fused PKN3 WT (mouse) (mouse) (UniProt Q8K045); experiment: as above

By UniProt entry, the sequences of proteins in these tests, tags left out. Where a name states a change or a piece, a line headed by the entry shows the natural chain unless it says otherwise. Chains listed by the source or under a name are the forms on record and can include a tag or linker.
UniProt Q8K045: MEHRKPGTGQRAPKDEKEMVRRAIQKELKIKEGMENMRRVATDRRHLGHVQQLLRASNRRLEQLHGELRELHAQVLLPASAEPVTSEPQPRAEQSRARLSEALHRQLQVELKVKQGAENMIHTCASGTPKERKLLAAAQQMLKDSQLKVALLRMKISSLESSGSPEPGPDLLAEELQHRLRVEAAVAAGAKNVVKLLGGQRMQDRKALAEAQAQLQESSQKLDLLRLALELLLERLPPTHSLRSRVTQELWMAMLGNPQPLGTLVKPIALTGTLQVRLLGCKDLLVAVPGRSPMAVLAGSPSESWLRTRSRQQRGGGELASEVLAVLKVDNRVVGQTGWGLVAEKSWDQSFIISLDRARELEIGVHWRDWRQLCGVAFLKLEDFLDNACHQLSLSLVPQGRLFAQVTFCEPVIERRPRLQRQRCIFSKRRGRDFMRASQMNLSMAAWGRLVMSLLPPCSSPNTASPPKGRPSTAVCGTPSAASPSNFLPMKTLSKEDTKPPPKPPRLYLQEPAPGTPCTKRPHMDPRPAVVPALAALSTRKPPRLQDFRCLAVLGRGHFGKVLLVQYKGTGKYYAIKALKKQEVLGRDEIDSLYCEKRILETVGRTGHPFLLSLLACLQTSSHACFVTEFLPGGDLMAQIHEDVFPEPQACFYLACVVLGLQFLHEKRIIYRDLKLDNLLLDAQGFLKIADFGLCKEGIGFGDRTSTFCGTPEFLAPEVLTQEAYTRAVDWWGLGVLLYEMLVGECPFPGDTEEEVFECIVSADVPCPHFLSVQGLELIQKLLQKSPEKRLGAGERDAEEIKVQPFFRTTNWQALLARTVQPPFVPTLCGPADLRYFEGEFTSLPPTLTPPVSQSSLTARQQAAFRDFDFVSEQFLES
Flag and GFP-fused PKN3 KD (mouse) (Q8K045, form named): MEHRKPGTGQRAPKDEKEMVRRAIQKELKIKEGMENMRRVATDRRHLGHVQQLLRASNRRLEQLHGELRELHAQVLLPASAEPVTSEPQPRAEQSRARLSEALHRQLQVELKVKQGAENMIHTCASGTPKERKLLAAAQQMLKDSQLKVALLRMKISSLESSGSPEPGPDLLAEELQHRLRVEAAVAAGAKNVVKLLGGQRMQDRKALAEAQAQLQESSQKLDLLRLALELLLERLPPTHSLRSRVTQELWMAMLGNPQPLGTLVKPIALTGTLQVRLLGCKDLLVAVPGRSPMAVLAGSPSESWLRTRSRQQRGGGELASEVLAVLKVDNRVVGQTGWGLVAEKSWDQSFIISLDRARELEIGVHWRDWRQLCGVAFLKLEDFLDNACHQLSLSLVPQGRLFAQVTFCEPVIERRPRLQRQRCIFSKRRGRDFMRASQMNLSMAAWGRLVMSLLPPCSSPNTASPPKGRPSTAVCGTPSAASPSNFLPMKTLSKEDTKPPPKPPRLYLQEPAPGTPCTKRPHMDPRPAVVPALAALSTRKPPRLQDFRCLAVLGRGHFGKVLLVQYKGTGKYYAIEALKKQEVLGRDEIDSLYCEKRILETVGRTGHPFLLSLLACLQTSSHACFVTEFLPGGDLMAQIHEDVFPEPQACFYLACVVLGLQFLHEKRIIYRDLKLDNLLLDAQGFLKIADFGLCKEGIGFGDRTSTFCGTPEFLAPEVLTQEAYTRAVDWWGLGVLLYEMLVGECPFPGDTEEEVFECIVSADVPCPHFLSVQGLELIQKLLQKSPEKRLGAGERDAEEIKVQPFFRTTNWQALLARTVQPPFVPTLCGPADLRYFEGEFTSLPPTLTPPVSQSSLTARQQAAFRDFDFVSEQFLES
Flag and GFP-fused PKN3 mPR (mouse) (Q8K045, form named): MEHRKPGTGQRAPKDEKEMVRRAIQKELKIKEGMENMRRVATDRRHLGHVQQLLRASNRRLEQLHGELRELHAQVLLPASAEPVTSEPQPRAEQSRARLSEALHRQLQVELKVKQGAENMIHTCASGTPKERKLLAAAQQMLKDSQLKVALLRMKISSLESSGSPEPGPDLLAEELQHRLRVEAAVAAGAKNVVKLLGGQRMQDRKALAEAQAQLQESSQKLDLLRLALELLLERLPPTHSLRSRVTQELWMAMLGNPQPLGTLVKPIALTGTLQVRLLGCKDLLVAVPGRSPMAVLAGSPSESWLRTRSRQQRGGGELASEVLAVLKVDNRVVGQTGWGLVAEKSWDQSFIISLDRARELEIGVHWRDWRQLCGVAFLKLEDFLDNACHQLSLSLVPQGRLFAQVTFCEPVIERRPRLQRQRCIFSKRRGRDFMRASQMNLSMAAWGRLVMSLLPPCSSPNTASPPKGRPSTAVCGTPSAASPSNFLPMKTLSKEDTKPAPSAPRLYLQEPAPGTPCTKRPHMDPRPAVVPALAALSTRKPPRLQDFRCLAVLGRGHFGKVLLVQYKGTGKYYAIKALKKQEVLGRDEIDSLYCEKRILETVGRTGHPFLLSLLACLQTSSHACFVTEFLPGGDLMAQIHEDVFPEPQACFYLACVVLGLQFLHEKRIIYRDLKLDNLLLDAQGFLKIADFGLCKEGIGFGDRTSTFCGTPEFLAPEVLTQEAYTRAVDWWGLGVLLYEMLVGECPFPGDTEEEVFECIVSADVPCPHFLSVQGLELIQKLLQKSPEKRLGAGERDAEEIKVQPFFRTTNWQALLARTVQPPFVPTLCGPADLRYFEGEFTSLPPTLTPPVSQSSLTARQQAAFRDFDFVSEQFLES

binding [1]: binds
B1: p130Cas WT re-expressed in SrcF-transformed p130Cas-/- MEFs (SC cells) (protein, UniProt Q61140 1-874)
chain: MTVPNVLAKALYDNVAESPDELSFRKGDIMTVLERDTQGLDGWWLCSLHGRQGIVPGNRLKILVGMYDKKPVGPGPGPPATPPQPQPSLPQGVHAPVPPASQYSPMLPTAYQPQSDNVYLVPTPSKTQQGLYQAPGPNPQFQSPPAKQTSTFSKQTPHHSFPSPATDLYQVPPGPGSPAQDIYQVPPSAGIGHDIYQVPPSLDTRGWEGTKPPAKVVVPTRVGQGYVYEAAQTEQDEYDTPRHLLAPGPQDIYDVPPVRGLLPNQYGQEVYDTPPMAVKGPNGRDPLLDVYDVPPSVEKGLLSSSHHSVYDVPPSVSKDVPDGPLLREETYDVPPAFAKPKPFDPTRHPLILAAPPPDSPAAEDVYDVPPPAPDLYDVPPGLRRPGPGTLYDVPRERVLPPEVADGSVVDDGVYAVPPPAEREAPTDGKRLSASSTGSTRSSQSASSLEVVVPGREPLELEVAVESLARLQQGVSTTVAHLLDLVGSASGPGGWRGTSEPQEPPAQDLKAAVAAVHGAVHELLEFARGAVSNATHTSDRTLHAKLSRQLQKMEDVYQTLVVHGQVLDSGRGSPGFTPEDLDRLVACSRAVPEDAKQLASFLHGNASLLFRRTKAPGPGPEGSSSLHPNPTDKASSIQSRPLPSPPKFTSQDSPDGQYENSEGGWMEDYDYVHLQGKEEFEKTQKELLERGNIMRQGKGQLELQQLKQFERLEQEVSRPIDHDLANWTPAQPLVPGRTGGLGPSDRQLLLFYLEQCEANLTTLTDAVDAFFTAVATNQPPKIFVAHSKFVILSAHKLVFIGDTLSRQAKAADVRSQVTHYSNLLCDLLRGIVATTKAAALQYPSPSAAQDMVDRVKELGHSTQQFRRVLGQLAAA

binding [2]: binds
binding [3]: binds weakly
binding [4]: binds
B2: p130Cas, endogenous in MDA-MB-231 cells (protein, UniProt P56945 1-870)
chain: MNHLNVLAKALYDNVAESPDELSFRKGDIMTVLEQDTQGLDGWWLCSLHGRQGIVPGNRLKILVGMYDKKPAGPGPGPPATPAQPQPGLHAPAPPASQYTPMLPNTYQPQPDSVYLVPTPSKAQQGLYQVPGPSPQFQSPPAKQTSTFSKQTPHHPFPSPATDLYQVPPGPGGPAQDIYQVPPSAGMGHDIYQVPPSMDTRSWEGTKPPAKVVVPTRVGQGYVYEAAQPEQDEYDIPRHLLAPGPQDIYDVPPVRGLLPSQYGQEVYDTPPMAVKGPNGRDPLLEVYDVPPSVEKGLPPSNHHAVYDVPPSVSKDVPDGPLLREETYDVPPAFAKAKPFDPARTPLVLAAPPPDSPPAEDVYDVPPPAPDLYDVPPGLRRPGPGTLYDVPRERVLPPEVADGGVVDSGVYAVPPPAEREAPAEGKRLSASSTGSTRSSQSASSLEVAGPGREPLELEVAVEALARLQQGVSATVAHLLDLAGSAGATGSWRSPSEPQEPLVQDLQAAVAAVQSAVHELLEFARSAVGNAAHTSDRALHAKLSRQLQKMEDVHQTLVAHGQALDAGRGGSGATLEDLDRLVACSRAVPEDAKQLASFLHGNASLLFRRTKATAPGPEGGGTLHPNPTDKTSSIQSRPLPSPPKFTSQDSPDGQYENSEGGWMEDYDYVHLQGKEEFEKTQKELLEKGSITRQGKSQLELQQLKQFERLEQEVSRPIDHDLANWTPAQPLAPGRTGGLGPSDRQLLLFYLEQCEANLTTLTNAVDAFFTAVATNQPPKIFVAHSKFVILSAHKLVFIGDTLSRQAKAADVRSQVTHYSNLLCDLLRGIVATTKAAALQYPSPSAAQDMVERVKELGHSTQQFRRVLGQLAAA
